Results on 24 compounds are retold here after article PMC4336329 (PLoS ONE, 2015).

About 14,000 (4.5%) of roughly 310,000 compounds showed an effect of 50% or more. The effect is printed as a negative number. The list shows a part of the results.
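Further: peak tail current of the secondary pulse compared with the same well before compound.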

Sequence of human ether-à-go-go-related gene (hERG) potassium channel (Q12809 whole entry, looked up): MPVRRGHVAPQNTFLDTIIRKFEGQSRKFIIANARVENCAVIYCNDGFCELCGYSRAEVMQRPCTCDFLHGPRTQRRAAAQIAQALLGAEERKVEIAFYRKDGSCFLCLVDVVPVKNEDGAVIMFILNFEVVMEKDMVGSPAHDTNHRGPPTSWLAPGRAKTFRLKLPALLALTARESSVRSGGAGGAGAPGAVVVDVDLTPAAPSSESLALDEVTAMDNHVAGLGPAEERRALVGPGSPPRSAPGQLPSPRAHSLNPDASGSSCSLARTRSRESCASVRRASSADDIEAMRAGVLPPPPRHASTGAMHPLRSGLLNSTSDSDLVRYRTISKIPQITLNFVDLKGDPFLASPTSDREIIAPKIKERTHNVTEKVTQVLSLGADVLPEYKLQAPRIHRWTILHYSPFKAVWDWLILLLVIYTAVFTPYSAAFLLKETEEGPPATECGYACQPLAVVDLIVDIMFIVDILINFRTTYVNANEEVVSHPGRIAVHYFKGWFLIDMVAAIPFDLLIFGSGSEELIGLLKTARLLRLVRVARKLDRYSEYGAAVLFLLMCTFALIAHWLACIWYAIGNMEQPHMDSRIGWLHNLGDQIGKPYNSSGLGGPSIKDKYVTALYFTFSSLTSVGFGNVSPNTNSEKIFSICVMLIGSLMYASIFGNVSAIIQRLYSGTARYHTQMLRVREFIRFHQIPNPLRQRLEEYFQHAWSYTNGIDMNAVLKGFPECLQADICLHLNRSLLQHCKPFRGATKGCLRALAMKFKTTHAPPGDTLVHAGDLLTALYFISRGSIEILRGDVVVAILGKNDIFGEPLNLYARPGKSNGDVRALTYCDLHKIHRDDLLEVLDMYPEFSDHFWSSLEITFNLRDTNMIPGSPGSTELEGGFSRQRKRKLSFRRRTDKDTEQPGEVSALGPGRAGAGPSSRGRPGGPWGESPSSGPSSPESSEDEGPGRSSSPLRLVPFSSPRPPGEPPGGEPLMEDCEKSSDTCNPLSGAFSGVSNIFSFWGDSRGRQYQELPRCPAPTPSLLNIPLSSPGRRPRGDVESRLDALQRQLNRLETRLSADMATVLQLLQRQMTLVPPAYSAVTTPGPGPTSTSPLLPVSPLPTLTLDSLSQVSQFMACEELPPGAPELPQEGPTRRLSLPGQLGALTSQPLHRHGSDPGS

The test addresses human ether-à-go-go-related gene (hERG) potassium channel (human, UniProt Q12809). In words: primary screen, population patch clamp on CHO cells stably expressing hERG.
On to `Cn1c(=O)[nH]c(=O)c2c1nc(NCCO)n2CCOc1ccccc1`, for which the “hERG current change (%, negative = inhibition) at 10uM” value is given as 17.3%.

In the case of `CC(=O)NC(Cc1c[nH]c2ccccc12)C(=O)OCC(=O)Nc1ccc2c(c1)OCO2` (stereo not drawn), the “hERG current change (%, negative = inhibition) at 10uM” value was found to be 5.39%.

For `Cc1ccc2nc(N3CCC(C(=O)N4CCC5(CC4)OCCO5)CC3)sc2c1`, the “hERG current change (%, negative = inhibition) at 10uM” value is -19.8%.

As for `CC(C)(C)c1ccc(/C=N/NC(=O)C[n+]2ccccc2)cc1.[Cl-]`, the “hERG current change (%, negative = inhibition) at 10uM” value was found to be 26%.

Regarding `CC1(C)OC(=O)C(=CNCCc2ccc(O)cc2)C(=O)O1`, the “hERG current change (%, negative = inhibition) at 10uM” value is 29.5%.

For the compound `Cc1ccc(C)c(S(=O)(=O)N2CCN(C(=O)CNC(=O)c3ccc4ccccc4c3)CC2)c1`, the “hERG current change (%, negative = inhibition) at 10uM” value is recorded as -28.1%.

On to `CN1C(CC(O)c2ccccc2)CCCC1CC(O)c1ccccc1.Cl` (stereo not drawn), for which the “hERG current change (%, negative = inhibition) at 10uM” value is reported as -67.8%.

With `Cl.O=C(c1ccccc1)c1coc2ccc(O)c(CN3CCOCC3)c12`, the “hERG current change (%, negative = inhibition) at 10uM” value was -60.7%.

As to `O=C(c1cccnc1NCc1ccc(F)cc1)N1CCOCC1`, the “hERG current change (%, negative = inhibition) at 10uM” value came out at 3.95%.

Consider `O=C(O)CCCn1c(O)c(C=C2N=c3ccccc3=N2)sc1=S`, for which the “hERG current change (%, negative = inhibition) at 10uM” value is recorded as 18.3%.

Regarding `CCCCN(C)S(=O)(=O)c1ccc(C(=O)N=c2sc3cc(NC(C)=O)ccc3n2C)cc1`, the “hERG current change (%, negative = inhibition) at 10uM” value came out at 13.2%.

In the case of `CC(=O)c1cc(-c2ccccc2)n(CC(=O)Nc2cc(C)cc(C)c2)c1C`, the “hERG current change (%, negative = inhibition) at 10uM” value was found to be 36.8%.

Turning to `CC(=O)Nc1ccc(OS(=O)(=O)c2c(C)cc(C)cc2C)cc1`, the “hERG current change (%, negative = inhibition) at 10uM” value is listed as -6.62%.

Turning to `COc1ccc(/C=N/NC(=O)CSc2nnc(CCCc3ccc(OC)c(C)c3)o2)cc1`, the “hERG current change (%, negative = inhibition) at 10uM” value is 9.25%.

Consider `O=c1[nH]c(CSc2nnc(Nc3ccccc3)s2)nc2ccccc12`, for which the “hERG current change (%, negative = inhibition) at 10uM” value is reported as 3.98%.

Turning to `O=C(O)COc1ccc2oc3c(c2c1)CCCC3`, the “hERG current change (%, negative = inhibition) at 10uM” value was 5.66%.

For `N#Cc1c(NC(=O)C2CC(c3ccccc3Cl)=NO2)sc2c1CCC2` (stereo not drawn), the “hERG current change (%, negative = inhibition) at 10uM” value was found to be 20.1%.

For `CN(CC(=O)Nc1cccc(F)c1)C(=O)c1ccc(C2SCCS2)cc1`, the “hERG current change (%, negative = inhibition) at 10uM” value is 9.92%.

Turning to `O=C(NC1CCCCCC1)c1cc(-c2ccccn2)nc2ccccc12`, the “hERG current change (%, negative = inhibition) at 10uM” value was -14.2%.

For the compound `CC1SCC(=O)N(CC(=O)Nc2ccc3c(c2)OCO3)C1=O` (stereo not drawn), the “hERG current change (%, negative = inhibition) at 10uM” value turned out to be 12.4%.

In the case of `CC1CC(=O)N(CC(=O)Nc2ccc3c(c2)OCO3)c2ccccc2S1` (stereo not drawn), the “hERG current change (%, negative = inhibition) at 10uM” value is on record as -21.7%.

For the compound `O=C(Nc1cccc(F)c1)N1CCCC(CNS(=O)(=O)Cc2ccccc2)C1` (stereo not drawn), the “hERG current change (%, negative = inhibition) at 10uM” value is listed as -23.9%.

Turning to `COc1ccc(C(=O)NCC(=O)OCC(=O)NCCC2=CCCCC2)cc1`, the “hERG current change (%, negative = inhibition) at 10uM” value is given as -12.7%.

With `COc1cc(OC)c(OC)cc1/C=N/NC(=S)NCC1CCCO1` (stereo not drawn), the “hERG current change (%, negative = inhibition) at 10uM” value is listed as 3.77%.
